# Reference: patent US20260265301A1, “LONG-ACTING K-OPIOID RECEPTOR AGONIST” (CHENGDU AODA BIOTECHNOLOGY CO., LTD, priority 2023, published 2026)
# For at least one compound, name, drawing or mass did not settle the structure. Where a SMILES comes first, the peptide text is derived from it. Bridges are numbered along the chain shown (N, C = ends). Roman numbers before positions name the chains, in order. [ ]: non-standard residue; d: D form. The star is where a group is joined. X1 = O=C(O)CCCCCCCCCCCCCCCCC(=O)N[C@@H](CCC(=O)NCCOCCOCCOCCOCC(=O)*)C(=O)O; Api = NC1(C(=O)O)CCNCC1
# Molecular target: T1, human κ opioid receptor (OPRK1) (Homo sapiens, UniProt P41145)
# T1 construct: expressed in transfected cells; host or cells: CHO-K1
# Experiment: Agonist activity: inhibition of forskolin-stimulated cAMP release (HTRF) in CHO-K1 cells stably expressing opioid receptors
# Type: cell-based
# Settings: CHO-K1 cell line stably expressing opioid receptors; forskolin-stimulated cAMP, HTRF
# Source text: Gi-coupled human κ opioid receptor (OPRK1), upon stimulation with its specific opioid receptor agonists, can inhibit the intracellular adenylate cyclase pathway, and decrease cAMP levels. Forskolin can stimulate cAMP release in cell lines highly expressing opioid receptors. By stimulating cell lines stably transfected with opioid receptors, the inhibitory effect of a test compound on forskolin-stimulated cAMP release can be measured to determine the activity of the compound. The relative light units (RLU) from the cells after stimulation with different doses were measured via the homogeneous time-resolved fluorescence (HTRF) technique, and the EC50 of the agonist was subsequently calculated. This activity determination method is a currently commonly used method for determining the activities of opioid receptor agonists at home and abroad.
# A CHO-K1 cell line stably expressing opioid receptors was used. Stably transfected cells were stimulated with various concentrations of agonists (under the stimulation of a certain concentration of forskolin). The relative light units from the cells after stimulation with different doses were measured, from which the EC50 value of the agonist was subsequently obtained by calculation.
# T1 sequence (P41145 whole entry): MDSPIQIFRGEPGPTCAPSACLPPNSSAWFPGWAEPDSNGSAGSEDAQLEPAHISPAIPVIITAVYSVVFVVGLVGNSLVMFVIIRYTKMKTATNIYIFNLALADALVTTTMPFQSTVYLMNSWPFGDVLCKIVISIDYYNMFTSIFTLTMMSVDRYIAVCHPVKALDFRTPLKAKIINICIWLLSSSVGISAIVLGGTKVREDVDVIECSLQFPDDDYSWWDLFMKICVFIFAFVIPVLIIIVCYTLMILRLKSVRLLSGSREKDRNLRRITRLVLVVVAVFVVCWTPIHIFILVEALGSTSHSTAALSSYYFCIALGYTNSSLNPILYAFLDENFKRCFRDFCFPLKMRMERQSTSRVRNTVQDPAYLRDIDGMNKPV
row,SMILES,EC50 [nM]
1,"CC(C)C[C@@H](NC(=O)[C@@H](Cc1ccc(F)cc1)NC(=O)[C@H](N)Cc1ccccc1)C(=O)N[C@H](CCCCN)C(=O)N1CCC(N)(C(=O)NCCOCCOCC(=O)N[C@@H](CCCCNC(=O)COCCOCCOCCOCCNC(=O)CC[C@H](NC(=O)CCCCCCCCCCCCCCCCC(=O)O)C(=O)O)C(N)=O)CC1 [Compound 7, D-Phe-D-Phe(4-F)-D-Leu-D-Lys-4-aminopiperidine-4-carboxamide-AEEA-Lys(PEG4CH2CO-γGlu-octadecanedioic acid)-NH2]",6.87
2,"CCOc1ccc(C[C@@H](NC(=O)[C@H](N)Cc2ccccc2)C(=O)N[C@H](CC(C)C)C(=O)N[C@H](CCCCN)C(=O)N2CCC(N)(C(=O)NCCOCC(=O)N[C@@H](CCCCNC(=O)COCCOCCOCCOCCNC(=O)CC[C@H](NC(=O)CCCCCCCCCCCCCCCCC(=O)O)C(=O)O)C(N)=O)CC2)cc1 [Compound 2, D-Phe-D-Tyr(Et)-D-Leu-D-Lys-4-aminopiperidine-4-carboxamide-PEG1CH2CO-Lys(PEG4CH2CO-γGlu-octadecanedioic acid)-NH2]",3.47
3,"CCOc1ccc(C[C@@H](NC(=O)[C@H](N)Cc2ccccc2)C(=O)N[C@H](CC(C)C)C(=O)N[C@H](CCCCN)C(=O)N2CCC(N)(C(=O)NCCOCCOCC(=O)N[C@@H](CCCCNC(=O)COCCOCCOCCOCCNC(=O)CC[C@H](NC(=O)CCCCCCCCCCCCCCCCC(=O)O)C(=O)O)C(N)=O)CC2)cc1 [Compound 3, D-Phe-D-Tyr(Et)-D-Leu-D-Lys-4-aminopiperidine-4-carboxamide-AEEA-Lys(PEG4CH2CO-γGlu-octadecanedioic acid)-NH2]",3.02
4,"CCOc1ccc(C[C@@H](NC(=O)[C@H](N)Cc2ccccc2)C(=O)N[C@H](CC(C)C)C(=O)N[C@H](CCCCN)C(=O)N2CCC(N)(C(=O)NCCOCCOCCOCCOCC(=O)N[C@@H](CCCCNC(=O)COCCOCCOCCOCCNC(=O)CC[C@H](NC(=O)CCCCCCCCCCCCCCCCC(=O)O)C(=O)O)C(N)=O)CC2)cc1 [Compound 4, D-Phe-D-Tyr(Et)-D-Leu-D-Lys-4-aminopiperidine-4-carboxamide-PEG4CH2CO-Lys(PEG4CH2CO-γGlu-octadecanedioic acid)-NH2]",4.18
5,"CCOc1ccc(C[C@@H](NC(=O)[C@H](N)Cc2ccccc2)C(=O)N[C@H](CC(C)C)C(=O)N[C@H](CCCCN)C(=O)N2CCC(N)(C(=O)NCCOCCOCC(=O)N[C@@H](CCCCNC(=O)COCCOCCOCCNC(=O)CC[C@H](NC(=O)CCCCCCCCCCCCCCCCC(=O)O)C(=O)O)C(N)=O)CC2)cc1 [Compound 8, D-Phe-D-Tyr(Et)-D-Leu-D-Lys-4-aminopiperidine-4-carboxamide-AEEA-Lys(PEG3CH2CO-γGlu-octadecanedioic acid)-NH2]",4.08
6,"CC(C)C[C@@H](NC(=O)[C@@H](Cc1ccc(Cl)cc1)NC(=O)[C@H](N)Cc1ccccc1)C(=O)N[C@H](CCCCN)C(=O)N1CCC(N)(C(=O)NCCOCCOCC(=O)N[C@@H](CCCCNC(=O)COCCOCCOCCOCCNC(=O)CC[C@H](NC(=O)CCCCCCCCCCCCCCCCC(=O)O)C(=O)O)C(N)=O)CC1 [Compound 6, D-Phe-D-Phe(4-Cl)-D-Leu-D-Lys-4-aminopiperidine-4-carboxamide-AEEA-Lys(PEG4CH2CO-γGlu-octadecanedioic acid)-NH2]",5.88
7,"COc1ccc(C[C@@H](NC(=O)[C@H](N)Cc2ccccc2)C(=O)N[C@H](CC(C)C)C(=O)N[C@H](CCCCN)C(=O)N2CCC(N)(C(=O)NCCOCCOCC(=O)N[C@@H](CCCCNC(=O)COCCOCCOCCOCCNC(=O)CC[C@H](NC(=O)CCCCCCCCCCCCCCCCC(=O)O)C(=O)O)C(N)=O)CC2)cc1 [Compound 5, D-Phe-D-Tyr(Me)-D-Leu-D-Lys-4-aminopiperidine-4-carboxamide-AEEA-Lys(PEG4CH2CO-γGlu-octadecanedioic acid)-NH2]",5.31
8,"CCOc1ccc(C[C@@H](NC(=O)[C@H](N)Cc2ccccc2)C(=O)N[C@H](CC(C)C)C(=O)N[C@H](CCCCN)C(=O)N2CCC(N)(C(=O)N[C@@H](CCCCNC(=O)COCCOCCOCCOCCNC(=O)CC[C@H](NC(=O)CCCCCCCCCCCCCCCCC(=O)O)C(=O)O)C(N)=O)CC2)cc1 [Compound 1, D-Phe-D-Tyr(Et)-D-Leu-D-Lys-4-aminopiperidine-4-carboxamide-Lys(PEG4CH2CO-γGlu-octadecanedioic acid)-NH2]",4.63
9,"CCOc1ccc(C[C@@H](NC(=O)[C@H](N)Cc2ccccc2)C(=O)N[C@H](CC(C)C)C(=O)N[C@H](CCCCN)C(=O)N2CCC(N)(C(=O)NCC(=O)N[C@@H](CCCCNC(=O)COCCOCCOCCOCCNC(=O)CC[C@H](NC(=O)CCCCCCCCCCCCCCCCC(=O)O)C(=O)O)C(N)=O)CC2)cc1 [Compound 10, D-Phe-D-Tyr(Et)-D-Leu-D-Lys-4-aminopiperidine-4-carboxamide-Gly-Lys(PEG4CH2CO-γGlu-octadecanedioic acid)-NH2]",4.76
10,"CCOc1ccc(C[C@@H](NC(=O)[C@H](N)Cc2ccccc2)C(=O)N[C@H](CC(C)C)C(=O)N[C@H](CCCCN)C(=O)N2CCC(N)(C(=O)NCC(=O)NCC(=O)N[C@@H](CCCCNC(=O)COCCOCCOCCOCCNC(=O)CC[C@H](NC(=O)CCCCCCCCCCCCCCCCC(=O)O)C(=O)O)C(N)=O)CC2)cc1 [Compound 11, D-Phe-D-Tyr(Et)-D-Leu-D-Lys-4-aminopiperidine-4-carboxamide-Gly-Gly-Lys(PEG4CH2CO-γGlu-octadecanedioic acid)-NH2] (I: H-[Api]GGK(X1)-NH2 / II: H-[dF][dY](Et)[dL][dK]; amide I:1-II:C; N-terminus assumed)",4.27
11,"CCOc1ccc(C[C@@H](NC(=O)[C@H](N)Cc2ccccc2)C(=O)N[C@H](CC(C)C)C(=O)N[C@H](CCCCN)C(=O)N2CCC(N)(C(=O)NCCOCCOCC(=O)N[C@@H](CCCCNC(=O)COCCOCCOCCOCCOCCNC(=O)CC[C@H](NC(=O)CCCCCCCCCCCCCCCCC(=O)O)C(=O)O)C(N)=O)CC2)cc1 [Compound 9, D-Phe-D-Tyr(Et)-D-Leu-D-Lys-4-aminopiperidine-4-carboxamide-AEEA-Lys(PEG5CH2CO-γGlu-octadecanedioic acid)-NH2]",4.38

# Same assay, conditions: CHO-K1 cell line stably expressing opioid receptors; forskolin-stimulated cAMP, HTRF; read-out: EC50
row,SMILES,EC50 [nM]
1,"CCOc1ccc(C[C@@H](NC(=O)[C@H](N)Cc2ccccc2)C(=O)N[C@H](CC2CC2)C(=O)N[C@H](CCCCN)C(=O)N2CCC(N)(C(=O)NCCOCCOCC(=O)N[C@@H](CCCCNC(=O)COCCOCCOCCOCCNC(=O)CC[C@H](NC(=O)CCCCCCCCCCCCCCCCC(=O)O)C(=O)O)C(N)=O)CC2)cc1 [Compound 12, D-Phe-D-Tyr(Et)-D-Cyclopropylalanine-D-Lys-4-aminopiperidine-4-carboxamide-AEEA-Lys(PEG4CH2CO-γGlu-octadecanedioic acid)-NH2]",4.73

# Same assay, conditions: relative to Difelikefalin = 100%
row,SMILES,Relative Activity % [%]
1,"CC(C)C[C@@H](NC(=O)[C@@H](Cc1ccccc1)NC(=O)[C@H](N)Cc1ccccc1)C(=O)N[C@H](CCCCN)C(=O)N1CCC(N)(C(=O)O)CC1 [Difelikefalin, reference compound]",100
